# In all, about 310,000 compounds went through this assay and about 14,000 (4.5%) showed an effect of 50% or more. The effect is printed as a negative number. The list shows a part of the results.
# Target: human ether-à-go-go-related gene (hERG) potassium channel (human, UniProt Q12809)
# Assay: primary screen, population patch clamp on CHO cells stably expressing hERG
# 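Also: peak tail current of the secondary pulse compared with the same well before compound.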
# human ether-à-go-go-related gene (hERG) potassium channel, sequence (Q12809 whole entry, looked up): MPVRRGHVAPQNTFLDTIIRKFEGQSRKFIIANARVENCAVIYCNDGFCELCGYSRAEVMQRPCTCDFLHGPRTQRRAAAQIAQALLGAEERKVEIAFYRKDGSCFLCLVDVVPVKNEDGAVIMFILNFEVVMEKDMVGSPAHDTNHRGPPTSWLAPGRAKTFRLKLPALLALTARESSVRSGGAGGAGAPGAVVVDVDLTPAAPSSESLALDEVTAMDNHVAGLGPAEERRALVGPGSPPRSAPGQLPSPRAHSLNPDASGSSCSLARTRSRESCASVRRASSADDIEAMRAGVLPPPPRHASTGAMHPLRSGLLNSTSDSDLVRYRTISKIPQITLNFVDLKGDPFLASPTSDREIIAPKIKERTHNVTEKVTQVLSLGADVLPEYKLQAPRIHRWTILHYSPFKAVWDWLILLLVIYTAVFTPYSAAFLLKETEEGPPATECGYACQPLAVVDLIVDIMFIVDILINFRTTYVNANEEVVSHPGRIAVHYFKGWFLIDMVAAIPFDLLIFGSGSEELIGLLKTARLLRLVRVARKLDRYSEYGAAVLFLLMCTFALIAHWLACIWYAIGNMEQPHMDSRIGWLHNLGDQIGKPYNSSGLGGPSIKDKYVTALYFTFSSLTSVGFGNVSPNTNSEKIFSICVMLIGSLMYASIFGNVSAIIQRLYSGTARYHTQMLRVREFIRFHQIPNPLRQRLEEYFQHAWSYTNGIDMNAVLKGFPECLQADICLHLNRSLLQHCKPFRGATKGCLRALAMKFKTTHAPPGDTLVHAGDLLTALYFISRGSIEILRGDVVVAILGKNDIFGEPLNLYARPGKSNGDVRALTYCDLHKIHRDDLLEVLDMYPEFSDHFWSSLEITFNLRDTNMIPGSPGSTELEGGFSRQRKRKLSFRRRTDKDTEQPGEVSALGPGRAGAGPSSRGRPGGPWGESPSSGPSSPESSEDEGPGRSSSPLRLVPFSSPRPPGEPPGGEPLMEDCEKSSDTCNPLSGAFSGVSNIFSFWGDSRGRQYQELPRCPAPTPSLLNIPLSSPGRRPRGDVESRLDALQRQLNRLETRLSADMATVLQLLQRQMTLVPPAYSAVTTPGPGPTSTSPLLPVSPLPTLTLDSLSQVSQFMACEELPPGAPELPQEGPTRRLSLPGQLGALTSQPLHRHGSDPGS
row,SMILES,"hERG current change (%, negative = inhibition) at 10uM"
1,Cc1cccnc1NC(=O)CNC(=O)c1cccs1,-8.89%
2,C/C(=N\NS(=O)(=O)c1ccc(Br)cc1)c1ccncc1,-6.01%
3,N#CC1(c2c(O)nc3n(c2=O)CCCS3)CCCCC1,16%
4,Cc1cc(NS(=O)(=O)c2ccc(NC(=O)Cc3cccs3)cc2)no1,6.02%
5,COc1ccc(-c2cc(=O)oc3cc4occ(C)c4cc23)cc1,-7.05%
6,Cc1cc2c(n1-c1ccc(Cl)cc1)CC(C)(C)CC2=O,-11.1%
7,COc1ccc(OCC(=O)N2CCN(C(=O)COc3ccccc3)CC2)cc1,-47.5%
8,O=C(COc1ccc(Br)cc1Cl)NC(=O)Nc1ccc2c(c1)OCCO2,11.3%
9,CC(C)(C)c1cc(C(=O)NNc2cccc(Cl)c2)n(Cc2ccccc2)n1,-4.28%
10,O=C(O)c1ccccc1SC1CC(=O)N(c2ccccc2)C1=O (stereo not drawn),-2.1%
11,COc1ccc(C(=O)NCCc2ccc(S(N)(=O)=O)cc2)cc1OC,-4%
12,CCC(=O)NC(C)c1nc2ccccc2n1C (stereo not drawn),1.29%
13,Cc1cc(=O)oc2c(C)c(OC(C)C(=O)NCCN3CCOCC3)ccc12 (stereo not drawn),22.2%
14,O=C(NCc1cccc(C(F)(F)F)c1)C1CC(c2ccccc2C(F)(F)F)=NO1 (stereo not drawn),-6.91%
15,O=C(N/N=C/c1ccc(F)c(F)c1)c1cc2c(s1)-c1ccccc1CC2,10.6%
16,O=C(O)CS(=O)(=O)c1ccc(Oc2ccc(S(=O)(=O)CC(=O)O)cc2)cc1,14.3%
17,Fc1cccc(CSc2ncnc3c2oc2ccccc23)c1,4.25%
18,O=S(=O)([O-])CCC[n+]1ccc(Oc2ccccc2)cc1,14.4%
19,O=C(c1ccc(N2CN(C(=O)c3ccco3)c3nc4ccccc4nc32)cc1)N1CCOCC1,-10.1%

row,SMILES,"hERG current change (%, negative = inhibition) at 10uM"
1,O=C(CCSc1ccccc1)Nc1nc2c(s1)COc1ccccc1-2,-4.22%
2,O=C(O)/C=C/c1ccc(S(=O)(=O)N(CCO)CCO)cc1,2.91%
3,O=C(NCC[C@@H]1C[C@@H]2C=C[C@H]1C2)c1cc(COc2ccc(F)cc2F)on1,7.21%
4,Cc1ccc(-c2nn(-c3ccccc3)cc2C(=O)Nc2ccc(C)c(S(=O)(=O)N3CCOCC3)c2)cc1,7.11%
5,Cl.Fc1cccc(Nc2c3c(nc4ccccc24)CCC3)c1,-68.2%
6,CC(C)CC(=O)NC(c1cccs1)c1ccc2cccnc2c1O (stereo not drawn),-11.1%
7,Cc1cc(C)n(S(=O)(=O)c2ccc(F)cc2)n1,-0.435%
8,Cc1ccc(-c2[nH]ncc2C(=O)c2cccc(F)c2)c(O)c1,4.16%
9,Cc1c(CN2CCC(CO)(CCOc3ccccc3)CC2)[nH]c2c(Cl)cccc12,-60.5%
10,COc1cc(/C=N/NC(=O)c2cccc(NC(=O)c3ccccc3)c2)ccc1O,0.15%
11,Cc1cc(C(=O)Nc2ccccc2N2CCOCC2)no1,-14.1%
12,CC(OC(=O)Cc1c[nH]c2ccccc12)C(=O)NC1(C#N)CCCCC1 (stereo not drawn),0.6%
13,COc1ccc(CC(=O)Nc2cccc(S(=O)(=O)N3CCCCC3)c2)cc1,-13.3%
14,C=CCNCCCOc1ccc(Cl)cc1C(C)(C)C.O=C(O)C(=O)O,-60.8%
15,CC1CCCC(C)N1C(=O)COC(=O)CNC(=O)c1ccccc1 (stereo not drawn),2.5%
16,Fc1ccccc1N1CCN(Cc2cc(-c3ccccc3)on2)CC1,-6.92%
17,CCN1CCN(Cc2c(C)[nH]c3ccc(C(=O)OC)cc3c2=O)CC1,-10.7%
18,Cc1nc(N2CCOCC2)nc(Oc2ccccc2F)c1[N+](=O)[O-],-1.71%
19,Cc1ccc(-c2nc(-c3ccccc3)no2)cc1,9.46%

row,SMILES,"hERG current change (%, negative = inhibition) at 10uM"
1,COc1cc(OC)cc(C(=O)NC(=S)Nc2ccc3[nH]c(=O)[nH]c3c2)c1,-27%
2,COc1ccc(N2CCN(C(=O)c3cc4c(-c5cccc(OC)c5)nn(C)c4s3)CC2)cc1,6.88%
3,COc1ccc(C(=O)NCCCNC(=O)c2cnccn2)cc1,14.3%
4,CCNC(=O)Oc1ccc(-c2csnn2)cc1,33.7%
5,Cc1cccc(C(C#N)c2ccc(Cl)nn2)c1 (stereo not drawn),16%
6,CCOc1cc(C)c(S(=O)(=O)NCc2ccccn2)cc1C,-1.85%
7,CC1=NNC(=O)C1C(c1ccccc1)C1C(=O)NN=C1C.O=C(O)C(=O)O (stereo not drawn),6.31%
8,Cc1c(Cl)cccc1NC(=S)NCc1ccccc1,16.5%
9,CCOC(=O)c1cc(-c2csc(COc3ccc(Cl)cc3)n2)on1,8.07%
10,COc1ccc(/C=N/Nc2ncnc3scc(-c4ccccc4)c23)cc1OC,7.34%
11,CC(=O)N1CCN(c2ccc(NC(=O)c3ccc(N4CCCC4)c([N+](=O)[O-])c3)cc2Cl)CC1,-12.4%
12,COC(=O)c1c(NC(=O)C2CC(C)=C(C)CC2C(=O)O)sc2c1CCCCC2 (stereo not drawn),-3.52%
13,COc1ccc(NC(=O)CN(C)C(=O)c2ccccc2SCC(=O)N2CCCC2)cc1,10.5%
14,CCN(c1ccc(OC)cc1)S(=O)(=O)c1cc(-c2cc(C)no2)ccc1C(C)C,14.9%
15,CC(=O)c1c(C)[nH]c(C(=O)NCCc2ccccc2)c1C,14.5%
16,Cc1c(NC(=O)Oc2ccccc2)sc(=S)n1C,20.7%
17,CC(C)(C)NS(=O)(=O)c1ccc(CCC(=O)NCc2ccccn2)cc1,13.4%
18,CCN(C(=O)CCc1nnc2ccc(NCc3ccco3)nn12)c1ccccc1,-6.9%
19,COCCCNC(=O)CN1C(=O)CSc2ccc(S(=O)(=O)N3CCOCC3)cc21,14.5%

# Source: article PMC4336329 (PLoS ONE, 2015)
